The campaign covered roughly 350,000 compounds. About 9,900 (2.8%) were called active. The shares of active, inactive and inconclusive entries below differ from those in the screen. Calls follow the shape of the dose curve; as a rule, active = well fitted activation curve with a large enough effect; inconclusive = small, poorly fitted or top-dose-only effect; inactive = no such curve, though single readings can be large or run the other way. No potency is given beside an inconclusive call; the fits are too rough.
assay: A quantitative high throughput screen for small molecules that induce DNA re-replication in MCF 10a normal breast cells.; also: nearly all actives have a fitted effect of over 50% in size; as to activity, positive = re-replication: % of control where 0% means no effect; conditions: MCF 10A DNA re-replication, Hoechst nuclear intensity, 48 h; activity, positive = re-replication: at 46.1 µM (top of the series)
Potency is read from the fitted curve at half-maximal effect; tags tell the direction and shape of the fitted curve.

SMILES	Potency	activity, positive = re-replication
CSc1nnc(-c2cc(-c3ccc(C)cc3)nc3ccccc23)o1	inactive	
Cc1ccc2nc(C(F)(F)F)c(C#N)c(N)c2c1	active: 3.26 µM	
C=CCN(c1ccccc1)S(=O)(=O)c1cccc(C(=O)Nc2nc3ccccc3[nH]2)c1	inactive	
COc1ccc(CC(=O)Nc2ccc(-c3noc(-c4cc(OC)c(OC)c(OC)c4)n3)cc2)cc1	inconclusive [activator, single point]	
CCOC(=O)CSC1=C(C#N)C(c2ccc(OC)cc2)C2=C(CC(C)(C)CC2=O)N1 (configuration not stated)	inconclusive [activator, partial curve, poor fit]	
CCN(C(=O)CN1C(=O)/C(=C/c2ccccc2)SC1=S)C1CCS(=O)(=O)C1 (configuration not stated)	inconclusive [activator, partial curve, poor fit]	
COc1cc(C=Nc2cccc(C)c2)c(O)c([N+](=O)[O-])c1	inconclusive [activator, full curve]	
CCOC(=O)CCC(=O)Nc1ccc(S(=O)(=O)N2CCc3ccccc32)cc1	inconclusive [activator, partial curve, poor fit]	
COC(=O)C1=C(NC(C)=O)CCS1	inactive	
O=C(CSc1nnc(-c2ccc(F)cc2)c2ccccc12)Nc1cccc(Cl)c1	inconclusive [activator, partial curve, poor fit]	
Cc1ccn(C(CC(=O)c2ccc(Br)cc2)C(=O)O)n1 (configuration not stated)	inconclusive [activator, partial curve, poor fit]	
CC(=O)c1ccc(N2CCN(C(=O)C3CCN(C(=O)Nc4ccccc4)CC3)CC2)cc1	inactive	
O=C(NCc1ccccc1F)c1cc(=O)[nH]c2ccccc12		inconclusive: -22.3% [activator]
FC(F)Oc1ccc(-c2csc(=Nc3cccnc3)n2CC2CCCO2)cc1 (configuration not stated)	inconclusive [activator, partial curve]	
CCOCCCn1c(SCc2nc3ccccc3s2)nc2ccccc2c1=O	inconclusive [activator, full curve, poor fit]	
Cc1cccc2c1-c1sc(C(=O)NCCCN3CCC(C)CC3)cc1CO2	active: 23.1 µM	
O=C(O)c1cc(Cl)ccc1-c1ccc(/C=C/c2cc(C(F)(F)F)[nH]c(=O)n2)o1	active: 18.4 µM	
O=C(Cc1ccc(F)cc1)Nc1nc(-c2ccc(F)cc2)cs1	inactive	
Cc1cccc(C)c1OCc1n[nH]c(=S)n1N	inactive	
CC1(C)CC(NC(=S)NCc2ccco2)CC(C)(C)N1	inactive	
O=C(COc1ccc(Cl)cc1)NCc1ccccc1	inactive	
Cc1ccc(C(=O)Nc2nnc(SCC(=O)N3CCCc4ccccc43)s2)cc1	inconclusive [activator, single point]	
CCCCOc1c(C(=O)Nc2ccccc2)nnn1-c1ccccc1	inconclusive [activator, single point]	
CCOCCCNc1nc(C(F)(F)F)nc2c1nnn2Cc1ccccc1Cl	inactive	

SMILES	Potency	activity, positive = re-replication
COc1ccc([C@H]2CC(=O)C=C(c3cc(Cl)ccc3OC)C2)cc1	inconclusive [activator, partial curve, poor fit]	
C=CCNC(=O)/C(C#N)=C/c1c(C)nn(-c2ccccc2)c1Cl	inconclusive [activator, single point]	
CCN(C(=O)CSc1cc(C)c2cccc(C)c2n1)C1CCS(=O)(=O)C1 (configuration not stated)	inactive	
CCOc1ccc(C(=O)N(c2ccccn2)C2CCCCC2)cc1	inconclusive [activator, full curve, poor fit]	
Cc1nc(Nc2cnc(/C=C/c3cc(C(=O)Nc4cccc(C(F)(F)F)c4)ccc3C)cn2)cc(N2CCNCC2)n1	active: 14.6 µM	
Cc1ccc(N2C(=O)[C@@H]3[C@H](C2=O)C2CCCN2[C@@H]3C(=O)c2ccccc2)cc1 (some centres not stated)	inconclusive [activator, single point]	
CCOc1ccccc1NC(=O)c1nnn(CC(=O)Nc2cc(C)cc(C)c2)c1N	inactive	
Cc1ccc(C(=O)NCCC(=O)NCc2ccco2)cc1	inactive	
Cc1cc(/C=N/NC(=O)c2ccccc2F)c(C)n1-c1ccccc1	inactive	
COc1cccc(CNc2cnc3ccccc3c2)c1O	inconclusive [activator, single point]	
CN(C)S(=O)(=O)c1ccc(C(=O)Nc2nnc(SCc3cccc4ccccc34)s2)cc1	inconclusive [activator, partial curve, poor fit]	
N#Cc1ccc(NC(=O)Cn2cnc(S(=O)(=O)N3CCOCC3)c2)cc1	inactive	
Cc1ccc(C(=O)/C=C/c2ccc(F)cc2)o1	inconclusive [activator, single point]	
Cc1cccc(C(=O)Nc2cccc(NC(=O)c3ccccc3)c2)c1	inactive	
C=CCOC(=O)C1=C[C@@H](c2csc3ccccc23)C[C@@H](OCc2ccc(CO)cc2)O1	inconclusive [activator, single point]	
CCCCn1c(C2CCCCC2)nc2cc3[nH]c(=O)c(C(C)C)nc3cc21	inconclusive [activator, single point]	
C=C1CC2C(CCC3(C)C2CCC3(O)C(C)=O)C2(C)CCC(=O)C=C12 (configuration not stated)	active: 23.1 µM	
O=C(O)C1=C[C@H](c2ccc(F)cc2)C[C@H](OCc2ccc(CO)cc2)O1	inactive	
Oc1ccc(C=NNc2ccccn2)c(O)c1	active: 16.4 µM	
CCOc1ccccc1OCCC(=O)Nc1ccc(F)c(Cl)c1	inconclusive [activator, single point]	
CC(C)[C@@H](NC(=O)C1CCC(CNC(=O)[C@H](Cc2ccccc2)NC(=O)OC(C)(C)C)CC1)C(=O)O (some centres not stated)	inactive	
CCCC(=O)NC1=C(Cl)C(=O)c2ccccc2C1=O	inconclusive [activator, partial curve, poor fit]	
CCCCc1ccc(NC(=S)Nc2ccc(Cl)c(S(=O)(=O)N(C)C)c2)cc1	inconclusive [activator, full curve, poor fit]	
